Sequences with one replicate were seen in a single cluster, so their values are uncertain.
Test system: ATP
Assay: switch fluorescence ratio, 500 uM ATP over buffer (Cy3 cluster intensity, sum of 5 cycles each) (fold (ratio)); higher = stronger signal-on switching upon ATP binding; sequences stand for … in TCGTCGGCAGCGTCAGATGTGTATAAGAGACAGTTTTTTTTTTTTTTTTTTTTTTTTT…TC
Conditions: aptamer strand: ATP DNA aptamer (quencher-CACCTGGGGGAGTATTGCGGAGGAAGG + anchor), 100 nM annealed; ATP concentration: 500 uM; one replicate
In short: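 Exposure to 500 uM ATP lasted 15 min at 22 °C before imaging, and a selection-buffer image was taken beforehand, for Cy3-labelled switching-strand clusters on a modified Illumina MiSeq flow-cell annealed to 100 nM quencher-labelled ATP aptamer. Five buffer/ATP cycles were run with NaOH stripping and re-annealing between them. The fluorescence ratio per cluster is summed target-cycle over summed buffer-cycle Cy3 intensity, averaged per switch-domain sequence. Clusters outside 100-1000 RFU were excluded.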

TTGGCGATCT was tested, and the switch fluorescence ratio was 1.04.
ATAGGTCGTG was tested, and the switch fluorescence ratio was 0.973.
GGGGTCCTCT gave a switch fluorescence ratio of 0.976.
For GAGTGCAAGC, the switch fluorescence ratio was 1.11.
For CTATAGAGTC, the switch fluorescence ratio was 0.99.
For ATCACGCGCG, the switch fluorescence ratio was 1.03.
In the case of TCGTATTCAG, the switch fluorescence ratio is reported as 0.979.
Sequence ACCCATCCA has a switch fluorescence ratio of 1.03.
GCGGGCTTCC was tested, and the switch fluorescence ratio was 1.18.
AGGACGATTG gave a switch fluorescence ratio of 1.05.
GTGTACAATT gave a switch fluorescence ratio of 0.97.
With TGATCGTAAC the switch fluorescence ratio was 1.07.
Work on CAGTTGGGGA yielded a switch fluorescence ratio of 1.01.
Work on AACGGTTATA yielded a switch fluorescence ratio of 1.01.
With GTGACGGCAT the switch fluorescence ratio was 0.984.
For TAACCTCGAG, the switch fluorescence ratio was 0.985.
GCCGACGTCT showed a switch fluorescence ratio of 1.
AGCTGATTCT gave a switch fluorescence ratio of 0.969.
GTGTGGGCCG showed a switch fluorescence ratio of 1.01.
In the case of GCACATGGAT, the switch fluorescence ratio is reported as 0.983.
GTGTTGGAC showed a switch fluorescence ratio of 0.989.
Sequence CTGTCGAAT has a switch fluorescence ratio of 0.993.
Sequence AGACATCCG has a switch fluorescence ratio of 1.08.
Work on GGGAGGTCTT yielded a switch fluorescence ratio of 0.994.
ATCCGGTGGG gave a switch fluorescence ratio of 1.02.
Sequence GTCGTGCTTC has a switch fluorescence ratio of 0.998.
For GAGTAGCAGT, the switch fluorescence ratio was 1.04.
Sequence ATGTCTTCCC has a switch fluorescence ratio of 1.04.
Work on CGGTGGCAAT yielded a switch fluorescence ratio of 1.84.
In the case of CTTCAGAGGG, the switch fluorescence ratio is reported as 1.
CTTAGTGATA showed a switch fluorescence ratio of 0.985.
CCGTGGAAAA was tested, and the switch fluorescence ratio was 3.79.
Work on AGAAAGGGTA yielded a switch fluorescence ratio of 0.956.
With ATGTTATGCG the switch fluorescence ratio was 0.986.
For TGTTAGCCCT, the switch fluorescence ratio was 1.
GTATTTGTGG was tested, and the switch fluorescence ratio was 0.991.
CTGGCAATTT was tested, and the switch fluorescence ratio was 1.31.
TCGCGGGGAA gave a switch fluorescence ratio of 0.997.
With AGTTCTTAAT the switch fluorescence ratio was 0.978.
Sequence CCACGGTTTT has a switch fluorescence ratio of 1.14.
In the case of AGCCTTTTGG, the switch fluorescence ratio is reported as 0.97.
ATAGGATTGG gave a switch fluorescence ratio of 0.998.
For ACTCGGTATC, the switch fluorescence ratio was 1.11.
Sequence CTGAACAAGG has a switch fluorescence ratio of 1.02.
Work on CCTCGGGCAG yielded a switch fluorescence ratio of 1.59.
In the case of ACGTGCGCTA, the switch fluorescence ratio is reported as 1.67.
For GTGACGGTCC, the switch fluorescence ratio was 0.994.
CACGAACCT gave a switch fluorescence ratio of 1.7.
TTGCTCGGGG gave a switch fluorescence ratio of 1.
TATGTCCTT showed a switch fluorescence ratio of 0.998.
GGATGCATCT was tested, and the switch fluorescence ratio was 1.02.
GGACGAGTGG showed a switch fluorescence ratio of 0.955.
GCATCAGCTG was tested, and the switch fluorescence ratio was 0.986.
Work on CGGGGGCTAA yielded a switch fluorescence ratio of 1.08.
Work on TTGTCCTTGT yielded a switch fluorescence ratio of 1.02.
Sequence CTAGAAGACA has a switch fluorescence ratio of 0.998.
With TATCAGGAGT the switch fluorescence ratio was 0.97.
In the case of GCTCGTGGTT, the switch fluorescence ratio is reported as 1.02.
Work on AATCCCGCCT yielded a switch fluorescence ratio of 1.07.
TTAAGTTTGA was tested, and the switch fluorescence ratio was 1.04.
In the case of GTGATCCGAT, the switch fluorescence ratio is reported as 1.02.
ATCCCTACTT showed a switch fluorescence ratio of 0.99.
With GGTATATTCG the switch fluorescence ratio was 1.03.
Sequence AGAGTGACCG has a switch fluorescence ratio of 0.881.
For AAAGACGGTG, the switch fluorescence ratio was 0.983.
ATATCGTCCT gave a switch fluorescence ratio of 0.997.
GCTGATGGAA showed a switch fluorescence ratio of 1.05.
Work on ATGGAACATT yielded a switch fluorescence ratio of 0.995.
CTTTGTGACA showed a switch fluorescence ratio of 0.959.
TCTATATATC was tested, and the switch fluorescence ratio was 1.05.
AGCCATTCTA showed a switch fluorescence ratio of 1.01.
TCAGTGTTCC showed a switch fluorescence ratio of 1.05.
TCTGTGTACT gave a switch fluorescence ratio of 0.952.
Work on ACGTGTTTAT yielded a switch fluorescence ratio of 1.02.
GGGCCACATA showed a switch fluorescence ratio of 1.03.
For ATAGGGTCTT, the switch fluorescence ratio was 0.975.
CTGGGACATA was tested, and the switch fluorescence ratio was 0.996.
Sequence AGAGGTATTA has a switch fluorescence ratio of 0.975.
GAGTCACGGG gave a switch fluorescence ratio of 0.988.
In the case of TGCAGGTACT, the switch fluorescence ratio is reported as 1.11.
For GATGCCGTAT, the switch fluorescence ratio was 0.997.
Sequence ACGGAGCTCT has a switch fluorescence ratio of 1.24.
Work on CTCGGGATGA yielded a switch fluorescence ratio of 1.07.
CCAGAAAGAG showed a switch fluorescence ratio of 1.
Work on GGATTCCCGA yielded a switch fluorescence ratio of 1.05.
For ATTGTTCTCA, the switch fluorescence ratio was 0.939.
AGGTGGATCG was tested, and the switch fluorescence ratio was 0.986.
With TCCGCAAGGG the switch fluorescence ratio was 2.44.
In the case of TGGTATAGCG, the switch fluorescence ratio is reported as 0.94.
With CTACCATGCT the switch fluorescence ratio was 1.07.
With ATAGTCTAT the switch fluorescence ratio was 0.988.
TCACATTCAG was tested, and the switch fluorescence ratio was 0.977.
With CCGCTCCAGG the switch fluorescence ratio was 1.66.
GTAGATGCCT showed a switch fluorescence ratio of 0.99.
Work on AAGCGCTTCT yielded a switch fluorescence ratio of 1.03.
For CAATGTAGTT, the switch fluorescence ratio was 0.972.
With CAAAAGACAG the switch fluorescence ratio was 1.06.
AGTACAGGAG gave a switch fluorescence ratio of 1.01.
With AGTTTCACCG the switch fluorescence ratio was 1.04.
ATGGTATTCA gave a switch fluorescence ratio of 0.999.
TTGTTATAAG was tested, and the switch fluorescence ratio was 0.963.
With GAAATGGGCA the switch fluorescence ratio was 1.01.
Sequence TAGCGTAGAT has a switch fluorescence ratio of 0.995.
Sequence TCGGCACATA has a switch fluorescence ratio of 1.21.
TGGATGAAAT was tested, and the switch fluorescence ratio was 1.
TCAGCTCTTA gave a switch fluorescence ratio of 1.07.
In the case of GCCCGTTTTA, the switch fluorescence ratio is reported as 0.985.
AGTGAATGCG gave a switch fluorescence ratio of 0.958.
Work on TAGGTGAGGT yielded a switch fluorescence ratio of 0.992.
With GAGTGAATTC the switch fluorescence ratio was 1.05.
Sequence GTCGATAGTT has a switch fluorescence ratio of 1.01.
TATCAAACAT showed a switch fluorescence ratio of 1.03.
For GATCGCCATT, the switch fluorescence ratio was 0.994.
CAGTGATAGG was tested, and the switch fluorescence ratio was 1.01.
Work on GCTTTGGAA yielded a switch fluorescence ratio of 1.05.
Sequence CTCGATGGTA has a switch fluorescence ratio of 1.01.
Sequence GGCCGCTTGG has a switch fluorescence ratio of 0.956.
For GTTAACTCGA, the switch fluorescence ratio was 1.01.
TGTTTATATT gave a switch fluorescence ratio of 1.02.
In the case of CAATTCGCCC, the switch fluorescence ratio is reported as 1.15.
For CGTTTTCTAT, the switch fluorescence ratio was 0.97.
In the case of TCCAGCCGCA, the switch fluorescence ratio is reported as 1.15.
Work on GATACATTTC yielded a switch fluorescence ratio of 1.05.
For GCGGGATTAA, the switch fluorescence ratio was 0.99.
In the case of AGGGTCAATT, the switch fluorescence ratio is reported as 1.06.
For CGAAATACCC, the switch fluorescence ratio was 2.75.
In the case of GGTCCGCGCC, the switch fluorescence ratio is reported as 1.36.
With CATTCGGACA the switch fluorescence ratio was 1.06.
Work on TCGCATCTAA yielded a switch fluorescence ratio of 1.13.
CTCGACCGGT gave a switch fluorescence ratio of 1.01.
In the case of ACATATGGAG, the switch fluorescence ratio is reported as 1.
TTGAGATAAA was tested, and the switch fluorescence ratio was 1.07.
For ACCCGATGCT, the switch fluorescence ratio was 1.18.
AATTAGGTT was tested, and the switch fluorescence ratio was 0.947.
Work on CCAGGCCTAA yielded a switch fluorescence ratio of 0.999.
For GGTCCAGTTT, the switch fluorescence ratio was 1.02.
In the case of TAGCGATTAT, the switch fluorescence ratio is reported as 1.06.
Sequence ATTTGGCATA has a switch fluorescence ratio of 1.01.
Sequence TGGGCGACGA has a switch fluorescence ratio of 1.05.
GGTTAGGAGC showed a switch fluorescence ratio of 0.949.
TAAAGGGTTC was tested, and the switch fluorescence ratio was 1.04.
For CTAAGTCGGA, the switch fluorescence ratio was 0.975.
With GATGCCCGA the switch fluorescence ratio was 0.991.
TAATGTCGGT was tested, and the switch fluorescence ratio was 0.995.
Work on TGTCATTTA yielded a switch fluorescence ratio of 1.03.
CCAGTAGAG gave a switch fluorescence ratio of 0.975.
Work on AACGGTAACG yielded a switch fluorescence ratio of 1.
AGTGACCGCA was tested, and the switch fluorescence ratio was 1.29.
For GCACTATAGC, the switch fluorescence ratio was 1.02.
CGGTCTCAGC showed a switch fluorescence ratio of 0.991.
In the case of ATTTATCTGG, the switch fluorescence ratio is reported as 0.975.
Sequence ACGCTTAGTG has a switch fluorescence ratio of 0.957.
ATCCAGAGTG was tested, and the switch fluorescence ratio was 1.65.
CCTGGACGGA showed a switch fluorescence ratio of 0.989.
TCGCACACGT was tested, and the switch fluorescence ratio was 1.22.
Work on CTCGAAGA yielded a switch fluorescence ratio of 0.975.
With ACCCGACCCG the switch fluorescence ratio was 1.2.
ATCCGGGTTG was tested, and the switch fluorescence ratio was 0.997.
With GGGGCTAAAT the switch fluorescence ratio was 1.02.
With GATGATATCC the switch fluorescence ratio was 0.993.
CTACATAGTG was tested, and the switch fluorescence ratio was 1.03.
With GATCTGTACG the switch fluorescence ratio was 0.989.
In the case of GAGTTGCATC, the switch fluorescence ratio is reported as 1.01.
In the case of GACCGATCAA, the switch fluorescence ratio is reported as 1.08.
AACGTAGGCG was tested, and the switch fluorescence ratio was 1.01.
Sequence GGCGACTATC has a switch fluorescence ratio of 1.04.
With TGCACAACTA the switch fluorescence ratio was 1.05.
For TGGTCTGAAC, the switch fluorescence ratio was 0.975.
For TATAGATGGA, the switch fluorescence ratio was 1.05.
Sequence TCGTAGGCAA has a switch fluorescence ratio of 1.49.
TAGGCAGTAA gave a switch fluorescence ratio of 1.04.
TTATCAACTA showed a switch fluorescence ratio of 0.954.
For AGAACCTACA, the switch fluorescence ratio was 1.25.
GGACCACTTC was tested, and the switch fluorescence ratio was 1.03.
With TCCTGGCGCT the switch fluorescence ratio was 1.25.
Work on ACTAGCCTGA yielded a switch fluorescence ratio of 1.
TGGCACGTGT was tested, and the switch fluorescence ratio was 1.04.
For ATTGCAATAA, the switch fluorescence ratio was 1.05.
With GCGCCTTTTG the switch fluorescence ratio was 0.966.
With CGTCGGCAGA the switch fluorescence ratio was 1.09.
Sequence GAGAGCTTAA has a switch fluorescence ratio of 1.01.
CACAGATTTA showed a switch fluorescence ratio of 1.01.
Sequence ATTCACACTA has a switch fluorescence ratio of 1.09.
Sequence TGACATTTGG has a switch fluorescence ratio of 0.968.
In the case of CTCTGGAGAC, the switch fluorescence ratio is reported as 2.52.
CCCTTTTT was tested, and the switch fluorescence ratio was 1.08.
With TTAAGAGTAT the switch fluorescence ratio was 1.02.
With TTCCCAAATA the switch fluorescence ratio was 1.04.
Sequence TGATGGGTCG has a switch fluorescence ratio of 0.982.
With GTTGGCTGCA the switch fluorescence ratio was 1.02.
CCATAGGATT was tested, and the switch fluorescence ratio was 1.04.
In the case of GTGGGAGCCC, the switch fluorescence ratio is reported as 1.02.
ACTGACAGAG gave a switch fluorescence ratio of 0.951.
GTTGTTACTT gave a switch fluorescence ratio of 0.992.
Sequence TCTAAATCCA has a switch fluorescence ratio of 0.977.
For GACATAGTTC, the switch fluorescence ratio was 1.03.
Work on GAGCTCAGGC yielded a switch fluorescence ratio of 1.01.
Work on GACTTCTGGC yielded a switch fluorescence ratio of 0.957.
For CCAAAGTCAT, the switch fluorescence ratio was 1.2.
Sequence GTTCCAGATC has a switch fluorescence ratio of 0.939.

Source: the supplement of paper PMC10126150
